Results reported in the supplement of paper PMC11417369.
Some of the results follow.

test system: PF3D7_0420300 AP2 domain 1 (GST-tagged); experiment: gcPBM binding intensity (ln(normalized median fluorescence intensity)); higher = stronger DNA binding
How it was run: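 Probes on an Agilent 4 × 180k array were primer-extended, double-stranded and 36 bp long, taken from intergenic genomic regions, with negative controls added. GST-tagged P. falciparum DNA-binding domains from E. coli, about 25 μg on average, were applied to the array for 1 h in 1× PBS containing 1% milk, 0.2 mg/ml BSA, 0.5% salmon testes DNA and 0.03% Triton X-100. Binding intensity, obtained after Alexa488 anti-GST antibody detection and a 488 nm scan, is the highest Masliner-normalised natural-log median intensity across replicate spots of either probe orientation.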

| Sequence | gcPBM binding intensity (ln) |
| --- | --- |
| AAACATATGGTATTTAAACACACAAAAAAGAAAGAA [CACACA_site8239] | 9.85 |
| ATGTTGTGGATATATACACACATACATATTTATATA [CACACA_site6857] | 9.34 |
| ATACAATAATATAAATGTACAAATTATATCTTCATT [XGTACX_site8994] | 9.25 |
| AAATTAAATATTATATTAATTCTTAAATTTTTTTTT [CACACA_negctrl_site439] | 8.67 |
| AAATTTAAAAATAAAGAACACACATATGTAAAATAT [CACACA_site9252] | 9.7 |
| AATTTCAATTTCTGTTGTACACTTTTTAATAGTAAA [XGTACX_site4085] | 9.22 |
| AAAAAAAAAAAAAAAACACACAAACATCAAATTACT [CACACA_site6950] | 9.73 |
| TATATACGCATGCGCACACACAAGTGGGAAATTTGG [CACACA_site1785] | 9.52 |
| TTATTATATAAATAAAAAAAAAAAAAAAAAAAAAAA [CACACA_negctrl_site1455] | 8.28 |
| ATATTTATATGAATCACACACAAAAAATATAGAGAT [CACACA_site7775] | 9.88 |
| ACTGTGGGAATAACCACACACACACCCACATATATA [CACACA_site3542] | 10 |
| CATAAATACAAATATACACACATATATATATATATA [CACACA_site2633] | 9.61 |
| AATATGTTTTTTAGATGTACAGATTAAATATTAAAA [XGTACX_site7308] | 8.89 |
| TTTTTTTCATATATATGTACATAATTATATATGCAT [XGTACX_site3257] | 9.12 |
| AAATAGTAAGAGATGGTGCGTTTCCTTTTTTTTTTT [GTGCAC_site9663] | 9.42 |
| TTTAAAAATATTTCACGTACGCATTTTAAAAAGTAT [XGTACX_site8026] | 9.04 |
| CGTGGGAGCAGACACACACACACACCCATATATATA [CACACA_site334] | 10.1 |
| TTAATTATATGGTAAACAAATAAATGTGAAAGGAAA [XGTACX_negctrl_site389] | 9.39 |
| TATTTATAAATATACGCACACATTAATATATATATA [CACACA_site3969] | 9.42 |
| AGTATGTAAATGTGCCATATATATATTAAATACATA [CACACA_negctrl_site14] | 9.23 |
| ATATTATTTATTTTTAAATTATATTGATTATTTTTT [CACACA_negctrl_site451] | 9.12 |
| GTTGGTAGGCGGTACGGTACACGTAGTATTTTTCTT [XGTACX_site4213] | 9.39 |

| Sequence | gcPBM binding intensity (ln) |
| --- | --- |
| TTGAAGTGTACTATTTTATATATATATATACATTTT [CACACA_negctrl_site224] | 9.33 |
| TAGAAATATATTTATTGTACATTGTATATATTATAT [XGTACX_site7584] | 9.11 |
| TAATGTTCCTATATAGTGCAATTATGTTTTATTTCT | 9.48 |
| TTTTAATTTTTAAGACGTACTATCATTTGATAATAA [XGTACX_site3942] | 8.63 |
| TACGATGTTTTAAAATGTACATAAAAGTCACATAAG [XGTACX_site3297] | 9.09 |
| TCTTTTTTTTTTACTAGTACTTAAAAAAAAAATATG [XGTACX_site4395] | 8.99 |
| ATTATGTGCCAATACACACACACATCTATATTTATA [CACACA_site6359] | 10 |
| TATAAATTTGTTCAATGTACATGTAAAGATATAATC [XGTACX_site371] | 9.31 |
| TTATTTTTTATAAAATGTACATATATTTTAAATATA [XGTACX_site4026] | 8.98 |
| TGAAGCAAAAACAAAACACACATATAAATAAATAAA [CACACA_site3925] | 9.72 |
| ACCAATCCAAAAGAATGTACCCATGTTTTAAAATAT [XGTACX_site2907] | 9.29 |
| TTTTGTTAACATATAGAAAAGAACAAAGTTAAAAAG [XGTACX_negctrl_site462] | 9.2 |
| TTCGTATGCATGAAATGTACATGATATTATTATAAA [XGTACX_site4542] | 9.06 |
| AATATGGGCATACATGTGCACTTTTTCCCGTGGTTT | 9.4 |
| ACGAAAAGATATATATGTACATATATTAAAAAAAAA [XGTACX_site1517] | 9.18 |
| TTAATTAAATATAGGGGTACATATTATATATGTTTT [XGTACX_site3677] | 9.34 |
| AAATATTTCTGCAAGGTGCACTTTATAAATCTTTGA | 9.09 |
| AAGAAATTTATTTATTGTACAATATATAATTTGTTT [XGTACX_site2478] | 9.2 |
| TTATATGCATATTTTTGTACACAACATTGTTGTATA [XGTACX_site8707] | 9.25 |
| ATGTATATTTTTATGTGTACGTAATAAAACATAATA [XGTACX_site7777] | 9.2 |
| TTATTTTTTTTTAGAGCACACATTTTTAATAAGGTA [CACACA_site2133] | 9.09 |
| TATATACTATATATATGTACACAAAATTATTTTGAA [XGTACX_site8232] | 9.02 |
